Experimental data as given in the RNAGym collection of RNA variant scans (doi:10.7554/elife.90254).
Read counts are not given, so values of variants with three or more changes are uncertain.

B1: LINE1-mini (parent)
chain: GGCAGAGCUCAACACAGCGUGGCAAAGUGGCUGUGGCUAGACUGCC

Variants of: B1
Test: self-cleavage, relative activity (ratio to wild type); higher = more cleavage; in vitro, sequencing; the parent is a self-cleaving ribozyme

| Variant | self-cleavage |
| --- | --- |
| G1C C10U U32C | 0.02 |
| G1A G22C A26C | 0.49 |
| G1C C10A A11C | 0 |
| G1A C3G U32A | 0.28 |
| G1A G5C G30C | 0.14 |
| G1A C10U G30C | 0.65 |
| G1A A12G C31A | 0.09 |
| G1A A11C G44A | 0.03 |
| G1C C10A G22C C37U | 0 |
| G1C A24U G33C G35U G40U G44U | 0 |
| G1C C8G A14U G19U C45G | 0.01 |
| G1A G5C C45A | 0.12 |
| G1A G5U G22U G29A | 0.14 |
| G1A G17U C46A | 0.26 |
| G1A G2U G5A A11U C23A G27A U32G | 0.01 |
| G1A C3G A6U U9A A14U A26G | 0.15 |
| G1A U9C A16U | 0.01 |
| G1C C3U A11U G33C G36U | 0.01 |
| G1A G2U G40A | 0.02 |
| G1A C18G C31G G35C | 0.02 |
| G1A G17C G36U | 0.04 |
| G1A A16G U43G | 0.03 |
| G1A G2U G22C A25C U38C | 0.04 |
| G1A C8A G27C | 0.4 |

| Variant | self-cleavage |
| --- | --- |
| G1C A11G G30C U38G | 0 |
| G1A G7U U9A U34G A41G | 0.17 |
| G1A C10G C31G | 0.09 |
| G1C C3G U9G C10A C15A A39G | 0.02 |
| G1A A12U G17A A41U | 0.03 |
| G1A G44C C45A | 0.26 |
| G1A G5C C18G G21U G36A | 0.09 |
| G1A C18G C46A | 0.28 |
| G1A G5U C10U C42U | 0.07 |
| G1A G2U C37U | 0.02 |
| G1C A4U G7C C10A A24U | 0.02 |
| G1A C10U A11U G21C | 0.09 |
| G1C A14C A25C U43G | 0 |
| G1A G7U C31U | 0.13 |
| G1A U20C C23U | 0.41 |
| G1A A4G G21A U32A | 0.27 |
| G1C A4U G7U C45A | 0 |
| G1A A6G A16U U28C | 0.07 |
| G1C C10A G22A A25G G35U C46A | 0 |
| G1C A14G C15U | 0.04 |
| G1A A4C A14C U28A | 0.03 |
| G1C C8A G19U G22C G35C | 0 |
| G1A G2A A4G A12G G33U C42G G44A | 0.07 |
| G1A A11C A25G | 0.05 |

| Variant | self-cleavage |
| --- | --- |
| G1A G36C C46A | 0.25 |
| G1C A6U A16G U38A | 0.02 |
| G1A C3A A11U | 0.21 |
| G1A C23U A25C | 0.35 |
| G1A A6U C45G | 1 |
| G1A C8G A11C C18U G22U C23A | 0.11 |
| G1A G19A G22C C23U | 1.3 |
| G1A A6U G40A C45A | 0.22 |
| G1A G5A A11C A12C A16C U32G C37U C46U | 0.01 |
| G1A G2C C18G U32C U38A | 0.1 |
| G1C A12U C18G | 0.01 |
| G1A G5C U9G C23A G36U | 0.04 |
| G1C A4U U9C C13U G19A A26U G29A C37G | 0.01 |
| G1A C8U G35U | 0.02 |
| G1A A12U C13A C18A | 0.06 |
| G1A G7A G17A U38A | 0.35 |
| G1C A14C G35U G44C | 0.01 |
| G1A C18G G35U | 0.07 |
| G1A C15A G21U G33C G35A | 0.04 |
| G1A G7C U34G U38C | 0.05 |
| G1A G2A G19C G27C C31U G36A U43G | 0.01 |
| G1A C3U G33U C42A | 0.15 |
| G1A A11G G35U C46A | 0 |
| G1C A12G G27C C46U | 0.01 |

| Variant | self-cleavage |
| --- | --- |
| G1A C8U C18A U38C | 0.41 |
| G1A C8G C15G G35C G44U | 0.23 |
| G1A G7C U34G C45G | 0.15 |
| G1C A6U G17C | 0.07 |
| G1C A4C U20C | 0.06 |
| G1A G2A G19C C37U | 0.07 |
| G1A G7U C13U G17U A25U U28C G30A U38A A41U | 0.03 |
| G1A A25C U32C U38C G40A G44A | 0 |
| G1A G19C U43G C45U | 0.01 |
| G1A C10U A16C A39C | 0.03 |
| G1A G7A C15G G33C | 0.29 |
| G1A C10G G29C C46A | 0.13 |
| G1A A14G U28A C45G | 0.04 |
| G1A C10U U38G | 0.11 |
| G1A G22C U32A A39G | 0.09 |
| G1A C3A G21A G35C | 0.25 |
| G1A G22C G30A G40U | 0.03 |
| G1A C37U C42U | 0.04 |
| G1A C10U A26U | 0.08 |
| G1A C15A U28G C37U | 0.09 |
| G1A G7C C15U | 0.59 |
| G1A U34C G35A | 0.02 |
| G1C A6G C10U U28C U32C | 0.01 |
| G1A U20C G27A G29U G36A C46U | 0.08 |

| Variant | self-cleavage |
| --- | --- |
| G1A U20A G27C | 1.93 |
| G1A A4C A16U A25C C31G | 0.04 |
| G1A C3G A12U C23A | 0.59 |
| G1A C10U C13U U28G | 0.08 |
| G1A A6C A26C | 0.31 |
| G1C C10A G36A | 0.02 |
| G1C A41G C45G | 0.01 |
| G1C A25U C46A | 0.22 |
| G1C A4C A24U G35U | 0.01 |
| G1A A6U G7A | 0.45 |
| G1A G2C C8G C37U | 0.02 |
| G1C C10A A24C G44C | 0.01 |
| G1C C3U G19U C46A | 0.11 |
| G1A A24G A41C | 0.15 |
| G1C A4C C8G A12C G21U | 0.01 |
| G1C C10U A26C C37A | 0 |
| G1A C23U U38G | 0.01 |
| G1C C10A A11C G19U U32G G33A | 0.01 |
| G1A A12U U34G | 0.18 |
| G1C A11U C13G C15A G27U U34G U38A | 0 |
| G1C A26G G29U A39C | 0.01 |
| G1A G2A C8G C31U | 0.03 |
| G1A C10A C15U | 0.12 |
| G1A A4G A14U | 0.13 |

| Variant | self-cleavage |
| --- | --- |
| G1A C15U U34G | 0.03 |
| G1A C8U A16G G27U G29U | 0.11 |
| G1A C18G U32G G35C | 0.04 |
| G1A A6C G7U | 0.2 |
| G1A G2U C10A A11G C13U U32A | 0.01 |
| G1C C3G G21C G33U A39U | 0 |
| G1A C23A C31A | 0.73 |
| G1A G17C G19A G29C | 0.1 |
| G1A C31U G33C G36A G44U | 0.02 |
| G1A G5A C37G C42G G44U | 0.03 |
| G1C A12G G29C G33U C45G | 0.03 |
| G1A G5C C31U | 0.09 |
| G1A A6C U9G A24U G40U | 0.1 |
| G1C C3G G17A | 0.1 |
| G1C A12U G44U | 0 |
| G1A C10U A11C A12C C42U | 0.01 |
| G1A G7U C10U C18A A25G | 0.05 |
| G1C A6C U32C | 0.02 |
| G1C A26C G27A | 0.04 |
| G1A G2A G7U C8G G33C C42G | 0.46 |
| G1A U32C G33C | 0.09 |
| G1A C13U A25U U32A C42G | 0.07 |
| G1C A6G G29A | 0.01 |
| G1A G22C A24U G30U | 1.73 |

| Variant | self-cleavage |
| --- | --- |
| G1A G5C A11G C23A C46G | 0.01 |
| G1A C23A A25G U28C A39G C45G | 0.02 |
| G1C A6U A11U G22A U28C | 0.01 |
| G1A C13G C42U | 0.07 |
| G1A C10A C18U A26G U38A | 0.23 |
| G1A G36U U38C | 0.12 |
| G1A C3U A6U U9C U38A A39C | 0.07 |
| G1C C10A G19A A24U G35U A41G | 0.01 |
| G1A U9C G44C | 0.1 |
| G1C A14U C37A | 0.02 |
| G1C A6U U28C G36C | 0.01 |
| G1C C3G G30A | 0.22 |
| G1A C15A C18G U28A | 0.1 |
| G1A A16C U34C C42G | 0.05 |
| G1C A25C U43C | 0.03 |
| G1C A4U C8G G33U | 0.04 |
| G1C A14C C15A A16U | 0.02 |
| G1A G35U C37G | 0.04 |
| G1A C3G A4U G5C A14G G19A C31A | 0.35 |
| G1A U9G A16U G17C A25C | 0.17 |
| G1A G7A G19C G22A G30A | 0.12 |
| G1A G17A G30C A39U | 0.02 |
| G1A A14C G36A | 0.06 |
